The campaign covered roughly 310,000 compounds. About 14,000 (4.5%) showed an effect of 50% or more. The effect is printed as a negative number. This is one part of the list.

The values that follow come from PMC4336329 (PLoS ONE, 2015).
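Also: peak tail current of the secondary pulse compared with the same well before compound.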

For this test, the target named is human ether-à-go-go-related gene (hERG) potassium channel (human, UniProt Q12809). In words: primary screen, population patch clamp on CHO cells stably expressing hERG.
Chain of human ether-à-go-go-related gene (hERG) potassium channel (Q12809 whole entry, looked up): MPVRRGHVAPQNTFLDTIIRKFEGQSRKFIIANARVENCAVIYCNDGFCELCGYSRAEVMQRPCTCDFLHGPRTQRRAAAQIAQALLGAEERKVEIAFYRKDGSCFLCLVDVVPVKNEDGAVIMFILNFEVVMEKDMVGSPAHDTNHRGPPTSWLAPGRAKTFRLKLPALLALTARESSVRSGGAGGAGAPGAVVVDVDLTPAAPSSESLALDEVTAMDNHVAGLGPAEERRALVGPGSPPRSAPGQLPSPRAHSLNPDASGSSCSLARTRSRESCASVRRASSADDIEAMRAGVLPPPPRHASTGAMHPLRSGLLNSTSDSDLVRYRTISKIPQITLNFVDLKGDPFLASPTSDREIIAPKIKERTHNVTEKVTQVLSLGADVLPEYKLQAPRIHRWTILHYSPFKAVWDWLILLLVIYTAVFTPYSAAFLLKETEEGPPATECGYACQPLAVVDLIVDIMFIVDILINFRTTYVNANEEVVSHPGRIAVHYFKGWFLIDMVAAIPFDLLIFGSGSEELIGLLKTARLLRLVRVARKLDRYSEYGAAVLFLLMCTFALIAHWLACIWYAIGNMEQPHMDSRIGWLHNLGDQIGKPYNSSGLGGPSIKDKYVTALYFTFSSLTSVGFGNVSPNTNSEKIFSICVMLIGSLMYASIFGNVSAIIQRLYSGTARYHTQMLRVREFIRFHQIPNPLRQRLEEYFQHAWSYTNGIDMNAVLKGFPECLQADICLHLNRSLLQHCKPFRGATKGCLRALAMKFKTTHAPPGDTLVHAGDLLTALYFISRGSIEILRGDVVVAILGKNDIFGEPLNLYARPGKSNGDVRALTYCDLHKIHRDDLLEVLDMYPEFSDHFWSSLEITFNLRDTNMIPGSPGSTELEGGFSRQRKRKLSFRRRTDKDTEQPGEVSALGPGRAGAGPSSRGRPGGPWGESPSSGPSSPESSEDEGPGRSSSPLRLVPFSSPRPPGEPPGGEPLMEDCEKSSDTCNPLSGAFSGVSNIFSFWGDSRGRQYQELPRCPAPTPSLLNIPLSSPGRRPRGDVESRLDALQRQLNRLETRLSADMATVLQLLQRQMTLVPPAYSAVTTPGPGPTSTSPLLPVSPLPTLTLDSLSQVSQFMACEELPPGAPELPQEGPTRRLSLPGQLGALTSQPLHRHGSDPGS
With `CN(C)C(=O)CN1CCN(C(=O)CCl)CC1.Cl`, the “hERG current change (%, negative = inhibition) at 10uM” value is reported as -7.65%. Take `CCC(=O)NNc1nc2c(C)c(C)ccc2s1`: the “hERG current change (%, negative = inhibition) at 10uM” value worked out at 6.14%. For `Cn1c(C(C(=O)NCC2CCCO2)N(C(=O)Cn2nnc3ccccc32)C2CCCCC2)nc2ccccc21` (stereo not drawn), the “hERG current change (%, negative = inhibition) at 10uM” value is given as -4.55%.

In the case of `CC#CCN1c2ccccc2[C@]23C[C@@H](C(=O)OC)N(C(=O)c4ccco4)C2=NC(C(=O)OC)=C(C(=O)OC)[C@H]13`, the “hERG current change (%, negative = inhibition) at 10uM” value is -2.03%.

On to `CCN(C#N)c1nc(NC(C)C)nc(NC(C)C)n1`, for which the “hERG current change (%, negative = inhibition) at 10uM” value is -1.09%. Take `CCOC(=O)c1cc(-c2ccc(Cl)cc2)nc2onc(C)c12`: the “hERG current change (%, negative = inhibition) at 10uM” value is given as 5.04%.

For the compound `Cc1ccc(S(=O)(=O)N2CCN(C(=O)CSc3ccc(F)cc3)CC2)cc1`, the “hERG current change (%, negative = inhibition) at 10uM” value is 18.7%. Under `c1ccc(CCSc2ncnc3nc[nH]c23)cc1` stands 2.87%; under `COc1ccc(NC(=S)N2CCN(S(=O)(=O)c3ccc(F)cc3)CC2)cc1`, -0.0908%.

For `O=C(N/N=C/C=C/c1ccc2c(c1)OCO2)c1ccc([N+](=O)[O-])cc1`, the “hERG current change (%, negative = inhibition) at 10uM” value is on record as -6.87%. Under `O=C(c1ccc2c(c1)OCO2)C1CCCN(Cc2ccc(F)c(F)c2)C1` (stereo not drawn) stands -65.4%; under `O=C(NCC1CCCO1)c1c(O)nc2sccn2c1=O` (stereo not drawn), -17.1%; under `O=C(N[C@@H](Cc1c[nH]c2ccccc12)C(=O)O)C1CCN(S(=O)(=O)c2ccc(Cl)cc2)CC1`, 7.53%. Under `O=S(=O)(Nc1cc(Cl)ccc1N1CCCCC1)c1cccs1` stands 9.45%; under `Cc1ccccc1Nc1nc(N)nc(COC(=O)c2ccc([N+](=O)[O-])o2)n1`, -10.9%; under `Brc1ccc(C2=CC(c3ccco3)n3nnnc3N2)cc1` (stereo not drawn), 3.13%. As for `CCN(CC)S(=O)(=O)c1cc(C)c(C)cc1OCC(=O)NC1CCCC1`, the “hERG current change (%, negative = inhibition) at 10uM” value is reported as -23.1%. For the compound `O=C(CCl)Nc1cccc(S(=O)(=O)N2CCCCCC2)c1`, the “hERG current change (%, negative = inhibition) at 10uM” value is -20.6%. For `Cc1ccc(NC(=O)c2ccco2)c(NC(=O)c2ccc(Cl)cc2)c1`, the “hERG current change (%, negative = inhibition) at 10uM” value is on record as 3.74%. To `Cc1cnc(C(=O)OCC(=O)Nc2cc(-c3ccccc3)nn2-c2ccccc2)cn1` belongs -38.6%. Under `O=C(Nc1ccccc1F)C1CCCN1S(=O)(=O)c1cccc2nsnc12` (stereo not drawn) stands -7.47%; under `CCOC(=O)[C@H]1[C@H]2COc3cc(OC)ccc3[C@@H]2N2C(=O)CN(Cc3ccc(OC)cc3)C(=O)[C@@]12C`, -1.96%; under `COc1ccccc1CNC(=O)C1CC2Cn3c(nc4cc5ccccc5cc43)C2N1C` (stereo not drawn), -43.8%.

Turning to `Cn1c(N)c(C(=O)CSc2nc(N)cc(N)n2)c(=O)n(C)c1=O`, the “hERG current change (%, negative = inhibition) at 10uM” value worked out at 41.4%. For `c1ccc(Nc2ccc3c4c(cccc24)CC3)cc1`, the “hERG current change (%, negative = inhibition) at 10uM” value was 12.8%.

Take `COc1cccc(NC(=O)c2cc3c(=O)n4ccccc4nc3n(CC(C)C)c2=N)c1`: the “hERG current change (%, negative = inhibition) at 10uM” value is given as -82%. As for `Cc1onc(-c2ccccc2)c1C(=O)OCC(=O)NC(C)c1ccc(Cl)cc1` (stereo not drawn), the “hERG current change (%, negative = inhibition) at 10uM” value is recorded as -7.03%. Consider `O=C(NCCCN1CCOCC1)c1ccc(CSCc2cccc(Cl)c2)o1`, for which the “hERG current change (%, negative = inhibition) at 10uM” value was -64.4%.

Consider `COc1cccc(C(=O)Nc2cccc(-c3ccc4nncn4n3)c2)c1OC`, for which the “hERG current change (%, negative = inhibition) at 10uM” value is reported as -7.32%. As for `Cc1ccc(C(C)(C)C)cc1S(=O)(=O)Nc1cccc(S(=O)(=O)NC2=NCCC2)c1`, the “hERG current change (%, negative = inhibition) at 10uM” value was found to be 13.1%. In the case of `CNC(=O)COc1coc(CN2CCN(C(=O)c3ccco3)CC2)cc1=O`, the “hERG current change (%, negative = inhibition) at 10uM” value is 7.13%. To `COc1ccc(NC(=O)CSc2nc3c([nH]c4ccccc43)c(=O)n2C)c(OC)c1` belongs 19%; to `Cc1ccc(CCNC(=O)c2ccc3nc4ccc(Cl)cc4c(=O)n3c2)cc1`, 20.4%; to `O=C(/C=C\Nc1ccc(Br)cc1)c1cccnc1`, -6.19%. On to `O=C(NCC(c1ccccc1Cl)N1CCCC1)C1CCN(C(=O)Nc2ccccc2)CC1` (stereo not drawn), for which the “hERG current change (%, negative = inhibition) at 10uM” value is reported as -1.67%. On to `CC(C)c1ccc(OCCCN2CCCC2)cc1`, for which the “hERG current change (%, negative = inhibition) at 10uM” value is -67.1%. For the compound `CNc1nnc(SCC(=O)N2c3ccccc3NC(=O)CC2C)s1` (stereo not drawn), the “hERG current change (%, negative = inhibition) at 10uM” value amounted to 7.99%. Under `CCOc1ccc(S(=O)(=O)NCCC(=O)NCC(c2ccc(OC)cc2)N2CCCCC2)cc1` (stereo not drawn) stands -46.9%. Take `CCOC(=O)N1CCC(NC(=O)c2cc(S(=O)(=O)N3CCc4ccccc43)cn2C)CC1`: the “hERG current change (%, negative = inhibition) at 10uM” value is given as -12.1%. To `CN(C)CCNC(=O)c1ccccc1-c1ccccc1` belongs -1.88%; to `CCCCC(=O)Nc1ccc(C(=O)Nc2ccc3c(c2)OCO3)cc1`, 2.35%.

Turning to `CCCCN(C(=O)NC(=O)Nc1c(C)cc(C)cc1C)S(C)(=O)=O`, the “hERG current change (%, negative = inhibition) at 10uM” value is -4.82%. To `CCOC(=O)CN1C(=O)S/C(=C/c2ccc(N3CCCCC3)o2)C1=O` belongs 13.1%; to `CC(C)c1nc(N2CCOCC2)c(C#N)c2c1CCC2`, 7.25%.

Take `Cc1cccc(C)c1NS(=O)(=O)c1c(C(=O)N2CCCCC2)c(C)n(C)c1C`: the “hERG current change (%, negative = inhibition) at 10uM” value is 9.24%. Take `COc1ccccc1OCc1nnc(SCC(N)=O)n1-c1ccccc1`: the “hERG current change (%, negative = inhibition) at 10uM” value stood at 11.3%. With `Cc1ccc(C(=O)C(C)OC(=O)c2ccccc2[N+](=O)[O-])cc1` (stereo not drawn), the “hERG current change (%, negative = inhibition) at 10uM” value is 9.81%.

For `O=C(Nc1ncccn1)c1ccc([N+](=O)[O-])cc1`, the “hERG current change (%, negative = inhibition) at 10uM” value is on record as 26.6%. To `Cc1ccc(NC(=S)N(C)C(c2ccccc2)c2ccccc2)cc1C` belongs 19.2%.

Consider `Cc1cccc(CN(CC(=O)N/N=C/c2cccs2)S(=O)(=O)c2ccc(Cl)cc2)c1`, for which the “hERG current change (%, negative = inhibition) at 10uM” value amounted to 11.9%. Regarding `CC1(OC(=O)c2cnc3ccccc3n2)C(=O)C=C2C=C(c3ccc(C#N)cc3)OC=C2C1=O` (stereo not drawn), the “hERG current change (%, negative = inhibition) at 10uM” value was determined as 4.63%. Under `O=C(N/N=C/c1ccc(O)cc1)c1cccc(N/N=C/c2ccc(O)cc2)c1` stands 7.63%; under `CC12COC3(C(=O)Nc4ccc(Cl)cn4)CC1CCC32C` (stereo not drawn), 3.6%. As to `CCOc1nc2cnccc2n(CC(=O)Nc2c(C)cccc2CC)c1=O`, the “hERG current change (%, negative = inhibition) at 10uM” value was 8.7%.
